Patent publication US20040023883A1 (published 2004)

Molecular target: T1, human IGFBP-1 (human, UniProt P08833 26-259)
T1 construct: Recombinant secreted protein
T1 sequence (looked up): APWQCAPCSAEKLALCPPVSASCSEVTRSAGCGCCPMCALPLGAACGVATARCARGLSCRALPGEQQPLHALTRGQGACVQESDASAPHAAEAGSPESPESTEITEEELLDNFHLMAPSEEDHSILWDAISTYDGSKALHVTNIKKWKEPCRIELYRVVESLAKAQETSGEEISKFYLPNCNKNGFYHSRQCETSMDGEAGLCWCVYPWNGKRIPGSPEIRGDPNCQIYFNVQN
Assay: competitive phage ELISA
Experimental: E. coli cells (XL1-Blue, Stratagene) freshly transformed with phagemid vector were grown overnight in 5 mL 2YT medium (Sambrook et al, supra) in the presence of M13-VCS helper phage (Stratagene). Phage particles were harvested and resuspended in PBS buffer as described in Lowman, H. B., “Phage Display of Peptide Libraries on Protein Scaffolds,” in Cabilly, S. (ed.), Combinatorial Peptide Library Protocols (Humana Press Inc.: Totowa, N.J., 1998), pp. 249-264. Then phage concentrations were normalized to yield a maximal ELISA signal of 0.2-0.4 for each mutant (Lowman, in Cabilly, S. (ed.), supra). […] After blocking, the plates containing immobilized target were washed with 0.05% TWEEN™/PBS buffer and subsequently incubated with 80 μl/well of the premixed phage-competitor solutions for 1 hour at room temperature. After washing, bound phage was detected with 80 μl/well of a solution containing a primary rabbit anti-phage polyclonal antibody and a secondary goat anti-rabbit monoclonal antibody-horseradish peroxidase conjugate in 0.5% TWEEN 20™/PBS. o-Phenylenediamine (Sigma) and tetramethylbenzidine (Kirkegaard and Perry) were used as chromogenic substrates, resulting in product detection at 492 and 450 nm, respectively. IC₅₀ values were determined by fitting the binding data to a generic saturation curve (Lowman, in Cabilly, S. (ed.), supra).

B1: IGF-I S1A on phage (G1S-A70V template) (ligand, not shown: large carriers)
chain: not shown
binding result: binds
